Reference: PubChem BioAssay AID1347077 (National Center for Advancing Translational Sciences (NCATS), 2019)
Hit rate of the full screen: of about 44,000 compounds, fewer than 10 were called active. This list was built around the results that the source calls inconclusive (neither active nor inactive); the mix of calls is not that of the screen. Calls come from the whole dose curve; as a rule, active = well fitted activation curve with a large enough effect; inconclusive = small, poorly fitted or top-dose-only effect, or another doubt; inactive = no such curve, though single readings can be large or run the other way. No potency is given beside an inconclusive call; the fits are too rough.

Biological target: Beta-2 adrenergic receptor (Homo sapiens) (UniProt P07550)
Assay: qHTS assay of beta-arrestin-biased ligands of beta2-adrenergic receptor: NCGC Sytravon Library Screen;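 for activation: 0% = DMSO and full agonism = EC100 isoproterenol or metaproterenol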
Conditions: HTLA Tango cells, beta-arrestin recruitment, luciferase luminescence, 18 h; series mostly up to 46.1 µM; activation: at the top concentration
From the text: The concept of biased agonism is an emerging concept of molecular pharmacology which proposes that seven transmembrane receptors (7TMRs) or G protein-coupled receptors (GPCRs), exist in multiple signaling conformations and complexes and that ligands (either agonists or antagonists) can induce signaling biased responses for distinct signal transduction cascades. […] Furthermore, accumulating evidence over the last decade has drawn attention to a novel function of beta-arrestins as signal transducers that scaffold various signaling molecules upon activation of 7TMRs. […] This beta-arrestin-biased signaling presumably leads to distinct physiological outcomes from those by G protein activation. Additionally, the active receptor conformations which prefer on this beta-arrestin signaling are likely different from those activating G protein signaling. […] The goal of this screening project will be to discover and optimize novel beta-arrestin-biased ligands for beta2-AR signaling. A luminescent cell-based assay for beta2-AR-mediated agonism, known as the Tango assay, has been validated in which ligand binding of a recombinant beta2-AR and subsequent recruitment of a recombinant beta-arrestin lead to the release of the transcriptional activator tTA, which upregulates transcription of a tTA-responsive luciferase gene. […] Compounds from the NCGC Sytravon Library collection were screened as a concentration-titration series that ranged from 46 microM to 0.6 nM. NIH Molecular Libraries Probe Production Network [MLPCN] NIH Chemical Genomics Center [NCGC] MLPCN Grant: Fast-track/HHSN271700800025C PI: Bryan Roth and Bob Lefkowitz
Tango cells were dispensed into white, solid, tissue-culture-treated 1536-well plates at 1500 cells/well in DMEM, containing 1% fetal bovine serum (FBS). Then, 23 nL of compounds or DMSO were delivered to each well using a pin tool. Plates were incubated at 37 degrees C, 5% CO2 for 18 hr. Then 2.5 uL luminescent substrate mix (in-house prepared: 150 mM Tris-Cl, pH 7.6, 3 mM MgCl2, 1% Triton X-100, 5 mM DTT, 0.5 mM CoA, 0.15 mM ATP, 0.44 mM D-luciferin, final concentrations) was added to each well. Plates were then incubated for 15 minutes at room temperature, and subsequently measured on a ViewLux plate reader for luminescent signal using a clear filter with a 10 second exposure and 2x binning. The %Activity was determined from the corrected luminescence values. […] Concentration-response curves were fitted to the signals arising from the resulting luminescence. The concentration-effect curves were then classified based on curve quality (r2), response magnitude and degree of measured activity, and compounds were subsequently categorized based on their curve class.
Potency is the fitted concentration of half-maximal effect; tags give direction and shape of the fitted curve.

UniProt P07550, sequence (P07550 whole entry, looked up): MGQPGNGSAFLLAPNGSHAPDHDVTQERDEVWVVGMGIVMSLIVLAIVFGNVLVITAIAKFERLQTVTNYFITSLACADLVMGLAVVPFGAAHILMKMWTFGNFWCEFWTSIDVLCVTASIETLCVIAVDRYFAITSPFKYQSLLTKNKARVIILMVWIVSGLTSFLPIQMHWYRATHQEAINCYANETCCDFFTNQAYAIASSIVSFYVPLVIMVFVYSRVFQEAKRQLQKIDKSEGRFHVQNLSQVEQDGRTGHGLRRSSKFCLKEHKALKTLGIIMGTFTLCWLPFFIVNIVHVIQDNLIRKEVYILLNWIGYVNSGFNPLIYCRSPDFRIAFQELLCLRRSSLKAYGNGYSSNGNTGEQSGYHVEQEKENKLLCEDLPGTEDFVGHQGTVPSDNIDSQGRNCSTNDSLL

SMILES	Potency	activation
COc1cccc(C(=O)c2cn(CC(=O)NCc3ccccc3)c3nc(C)ccc3c2=O)c1	inconclusive [activator, partial curve, poor fit]	
Cn1c(-n2cccc2)c(-c2c(-c3ccccc3)[nH]c3c2c(=O)n(C)c(=O)n3C)c(=O)n(C)c1=O	inconclusive [activator, partial curve, poor fit]	
O=C(NCCc1ccccc1)C1CCC(CNS(=O)(=O)c2ccccc2)CC1 (stereo not drawn)		inactive: 0.526%
COC(=O)c1ccc(CSc2nnc3ccc4ccccc4n23)cc1	inconclusive [activator, single point]	
COc1cccc(CNC(=O)c2ccc(-n3c(C)cc4c3CCC(C)C4)cc2)c1 (stereo not drawn)	inconclusive [activator, partial curve, poor fit]	
Cc1ccc(C2c3c(-c4ccccc4O)n[nH]c3C(=O)N2CCCO)cc1 (stereo not drawn)	inconclusive [activator, single point]	
COc1ccccc1CNC(=O)c1cccc(N2CCCS2(=O)=O)c1		inactive: -0.0322%
COC(=O)c1cc2sccc2n1CC(=O)Nc1cc(Cl)ccc1OC		inactive: -2.1%
CCOc1ccccc1Oc1nc(C)nc2c1oc1ccccc12	inconclusive [activator, partial curve, poor fit]	
COc1ccc(-c2noc(CSc3nnc(C)n3-c3ccc(C)c(C)c3)n2)c(OC)c1	inconclusive [activator, partial curve, poor fit]	
Cc1ccc(C)c(Cn2c(=O)n(-c3ccccc3)c(=O)c3c4c(sc32)CCCC4)c1		inactive: -1.13%
Cc1ccc(-c2c(CN3CCN(c4cc(C)ccc4C)CC3)csc2C)cc1	inconclusive [activator, single point]	
CCC(Sc1nnc2c3ccccc3n(CC)c2n1)C(=O)Nc1ccc(NC(C)=O)cc1 (stereo not drawn)	inconclusive [activator, partial curve]	
COc1ccc(C(CC(=O)NCc2ccc(Cl)cc2)N2Cc3ccccc3C2=O)cc1OC (stereo not drawn)	inconclusive [activator, partial curve, poor fit]	
Cc1cccc(NC(=O)Cn2cc(C(=O)c3ccco3)c3ccccc32)c1C		inactive: -0.998%
Cc1ccc(NC(=O)CN2C(=O)CCc3ccccc32)cc1C		inactive: 2.45%
CCOc1ccc(C2C(C(=O)Nc3ccccc3)=C(C)Nc3nc(SCc4cccc(OC)c4)nn32)cc1 (stereo not drawn)		inactive: -2.23%
CC(C)Oc1ccc(CNC(=O)c2ccc3nc(SCc4ccc(F)cc4)n(C)c3c2)cc1	inconclusive [activator, partial curve, poor fit]	
O=C(NCc1ccccc1Cl)c1cc(=O)[nH]c2ccc(S(=O)(=O)N3CCCCC3)cc12		inactive: 1.05%
COc1cccc(OCc2cc(=O)n3c(-c4ccccc4)csc3n2)c1	inconclusive [activator, partial curve, poor fit]	
CCOC(=O)c1c(C)sc(-c2c(-c3ccc4c(c3)OCCO4)[nH]c3c2c(=O)[nH]c(=O)n3C)c1O	inconclusive [activator, partial curve, poor fit]	

SMILES	Potency	activation
CC(=O)OC(COc1ccccc1)Cn1cnc2cc(C)c(C)cc21 (stereo not drawn)		inactive: -2.07%
COc1ccc(CCNC(=O)CCn2c(=O)c3ccccc3n(Cc3ccc(Cl)cc3)c2=O)cc1OC		inactive: -1.99%
O=C(NC1CCCC1)c1ccc(CSc2nc3cccnc3n2Cc2ccc(F)cc2)cc1		inactive: 0.517%
COC(=O)c1cccnc1-n1c(=O)c2cccnc2n(CC(=O)Nc2ccc(C)cc2C)c1=O	inconclusive [activator, partial curve, poor fit]	
COc1ccc(NC(=O)CSc2nc3nc(C)c(Cc4ccccc4)c(C)n3n2)cc1OC	inconclusive [activator, partial curve, poor fit]	
COc1ccc(NC(=O)C(Cc2ccccc2)NS(=O)(=O)c2ccc3c(c2)CCC(=O)N3)c(OC)c1 (stereo not drawn)		inactive: 1.09%
NC(=O)C1CCN(S(=O)(=O)c2cc3c(cc2Cl)NC(=O)CO3)CC1		inactive: -1.59%
O=C(CSc1nc2c([nH]c3ccccc32)c(=O)n1-c1ccccc1)Nc1ccc2c(c1)OCO2	inconclusive [activator, partial curve, poor fit]	
Cc1noc2ncnc(N3CCN(c4cccc(C(F)(F)F)c4)CC3)c12	inconclusive [activator, single point]	
COc1cccc(NC(=O)C2CCN(S(=O)(=O)c3ccc4[nH]c5c(c4c3)CCCCC5)CC2)c1	inconclusive [activator, partial curve, poor fit]	
O=C(NCC(c1ccco1)S(=O)(=O)c1cccs1)c1ccc(Cl)cc1 (stereo not drawn)	inconclusive [activator, single point]	
O=C(NCc1cccc(F)c1)c1ccc(NC(=O)c2nsc3ccccc23)cc1		inactive: 2.06%
COc1ccc(F)cc1S(=O)(=O)Nc1cccc(-c2ccc(N3CCC(C)CC3)nn2)c1	inconclusive [activator, partial curve, poor fit]	
CC1=C(c2ccc(C(C)C)cc2)S(=O)(=O)N=C1N1CCC(C(=O)NCCc2ccco2)CC1		inactive: -0.306%
CCOc1ccc(NC(=O)c2c(NCc3ccc(C)o3)sc3c2CCCCC3)cc1	inconclusive [activator, single point]	
CCC1CCc2nc3sc(C(=O)Nc4ccc(C)cc4C)c(N)c3cc2C1 (stereo not drawn)		inactive: 0.448%
CCOc1ccccc1CNC(=O)c1ccc2nc(N3CCC(C)CC3)sc2c1		inactive: -0.427%
COc1cccc(CNC(=O)c2ccc(-n3c(C)cc4c3CCCC4)cc2)c1	inconclusive [activator, single point]	
COc1cc(C2c3c(-c4cc(C)ccc4O)n[nH]c3C(=O)N2Cc2ccco2)cc(OC)c1OC (stereo not drawn)	inconclusive [activator, single point]	
CC(=O)c1ccc(NC(=O)CSc2nnc3c(n2)[nH]c2ccccc23)cc1	inconclusive [activator, full curve, poor fit]	
Cc1cc2c(n1-c1ccc(C(=O)NCc3cccc(Br)c3)cc1)CCC(C)C2 (stereo not drawn)	inconclusive [activator, single point]	

SMILES	Potency	activation
CCc1cccc(NC(=O)Cn2cc(C(=O)c3ccncc3)c(=O)c3cc(C)c(C)cc32)c1	inconclusive [activator, single point]	
Cc1ccc(NC(=O)CN2C(=O)C(C)(C)c3ccccc32)cc1	inconclusive [activator, partial curve, poor fit]	
COc1ccccc1N1CCN(C(CNC(=O)C(=O)NCc2ccc(F)cc2)c2cccnc2)CC1 (stereo not drawn)		inactive: 3.58%
COc1ccc(CNCc2c(C(=O)O)c(C)n(Cc3ccccc3C)c2C)c(OC)c1	inconclusive [activator, partial curve, poor fit]	
COc1cc(C(=O)Oc2c(Sc3ccc(C)cc3)c(C)nn2-c2ccccc2)cc(OC)c1OC	inconclusive [activator, partial curve, poor fit]	
CC(=O)Nc1cccc(C(=O)NCc2ccc3c(c2)CCN3C(=O)c2ccccc2)c1	inconclusive [activator, partial curve, poor fit]	
COc1ccc(-n2c(=O)c3ccc(C(=O)NCc4ccc(C)cc4)cc3n(CC(=O)Nc3ccc(F)cc3)c2=O)cc1		inactive: 0.618%
COCc1cc(C)nc2sc3c(c12)NC(c1ccc(O)cc1)N(c1ccc(OC)cc1)C3=O (stereo not drawn)	inconclusive [activator, partial curve, poor fit]	
COc1ccccc1CNS(=O)(=O)c1cc2c3c(c1)CCN3C(=O)CC2	inconclusive [activator, single point]	
Cc1noc(/C=C/c2ccco2)c1S(=O)(=O)N1CCC(C(=O)Nc2ccc(F)c(Cl)c2)CC1		inactive: -1.06%
Cc1cccc(N2CCN(C(=O)Cn3nc(Cc4cccnc4)c4ccccc4c3=O)CC2)c1C	inconclusive [activator, partial curve, poor fit]	
CCCCn1c(=NC(=O)c2cc3ccccc3o2)c(C(=O)OCC)cc2c(=O)n3ccccc3nc21	inconclusive [activator, single point]	
Cc1ccc(NS(=O)(=O)c2ccc3[nH]c4c(c3c2)CCCC4)cc1N(C)C		inactive: -0.356%
COc1ccc(-n2cc(-c3ccccc3)c3c(Nc4ccc(OC)c(OC)c4)ncnc32)cc1	inconclusive [activator, single point]	
COc1ccc(-n2c(=O)c3ccccc3n(Cc3ccccc3C)c2=O)c(OC)c1	inconclusive [activator, single point]	
COc1ccc(CCNC(=O)Cn2nc(C)c3c(C)n(-c4ccc(C)cc4)nc3c2=O)c(OC)c1		inactive: 0.742%
Cc1cccc(-n2c(SCC(=O)Nc3ccccc3C)nc3c(oc4ccccc43)c2=O)c1	inconclusive [activator, partial curve, poor fit]	
CCc1cc2c(cc3c(=O)n(CC(=O)NCCOC)nc(CC)n32)s1	inconclusive [activator, single point]	
CSc1ccc(Cn2nnc(C(=O)Nc3ccc(C)cc3Cl)c2N)cc1		inactive: 1.14%
Cc1ccc(-c2nc(CNC(=O)Nc3ccccc3)c(C)o2)cc1	inconclusive [activator, partial curve, poor fit]	
CC(c1ccccc1)n1cc2c(c1-c1ccccc1Br)c(=O)n(C)c(=O)n2C (stereo not drawn)	inconclusive [activator, partial curve, poor fit]	
